Reference: article PMC4336329 (PLoS ONE, 2015)
The campaign covered roughly 310,000 compounds. About 2,200 (0.71%) showed an effect of 50% or more. The effect is printed as a negative number. The list shows a part of the results.

Target: human ether-à-go-go-related gene (hERG) potassium channel (human, UniProt Q12809)
Test: primary screen, population patch clamp on CHO cells stably expressing hERG

human ether-à-go-go-related gene (hERG) potassium channel, sequence (Q12809 whole entry, looked up): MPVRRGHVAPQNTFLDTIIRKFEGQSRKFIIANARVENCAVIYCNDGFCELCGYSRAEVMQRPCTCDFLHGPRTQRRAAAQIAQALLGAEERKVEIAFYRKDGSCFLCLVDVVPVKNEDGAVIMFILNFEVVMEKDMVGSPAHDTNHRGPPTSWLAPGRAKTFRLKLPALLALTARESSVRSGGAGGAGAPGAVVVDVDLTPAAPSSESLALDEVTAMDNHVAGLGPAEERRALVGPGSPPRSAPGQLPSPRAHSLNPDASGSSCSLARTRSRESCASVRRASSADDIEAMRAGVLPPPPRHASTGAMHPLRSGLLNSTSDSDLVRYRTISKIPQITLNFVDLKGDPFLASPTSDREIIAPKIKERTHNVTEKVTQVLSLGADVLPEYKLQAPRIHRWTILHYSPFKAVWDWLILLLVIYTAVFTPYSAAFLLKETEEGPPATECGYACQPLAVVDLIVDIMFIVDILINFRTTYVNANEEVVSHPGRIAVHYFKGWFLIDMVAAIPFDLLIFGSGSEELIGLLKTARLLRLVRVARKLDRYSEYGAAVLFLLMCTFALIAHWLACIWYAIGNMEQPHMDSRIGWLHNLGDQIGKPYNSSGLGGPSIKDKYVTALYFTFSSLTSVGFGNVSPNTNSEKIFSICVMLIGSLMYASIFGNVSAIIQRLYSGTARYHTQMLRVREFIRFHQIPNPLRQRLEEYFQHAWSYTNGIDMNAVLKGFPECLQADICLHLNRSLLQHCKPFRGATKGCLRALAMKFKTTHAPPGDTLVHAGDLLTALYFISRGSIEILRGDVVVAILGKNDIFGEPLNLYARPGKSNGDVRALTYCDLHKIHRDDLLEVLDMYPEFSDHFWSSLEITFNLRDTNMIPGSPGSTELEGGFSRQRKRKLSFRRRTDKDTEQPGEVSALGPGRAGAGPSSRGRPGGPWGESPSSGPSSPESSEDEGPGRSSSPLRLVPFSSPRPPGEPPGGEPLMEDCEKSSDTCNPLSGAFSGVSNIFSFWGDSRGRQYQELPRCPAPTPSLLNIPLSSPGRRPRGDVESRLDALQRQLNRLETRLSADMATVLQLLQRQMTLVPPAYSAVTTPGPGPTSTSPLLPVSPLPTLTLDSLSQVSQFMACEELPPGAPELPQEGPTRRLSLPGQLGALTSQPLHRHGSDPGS

SMILES | hERG current change (%, negative = inhibition) at 1uM [%]
O=C(N/N=C/c1ccco1)c1cc(-c2ccc(Cl)cc2)n[nH]1 | 5.92
O=C1NC(=O)N(c2ccccc2)C(=O)/C1=C\c1ccc2c3c(cccc13)CC2 | 8.05
O=c1sc2ccccc2n1Cc1ccccc1 | 4.61
CC1=CC2=NC(=O)/C(=C/c3coc4ccccc4c3=O)C(=N)N2O1 | 10.7
Cc1ccc(S(=O)(=O)NC(CC(=O)NCC2CCCO2)c2ccco2)cc1 (stereo not drawn) | 17.3
COc1cccc(OCCc2c(C)n[nH]c2C)c1.Cl | 4.51
NC(=NCCc1c[nH]c2ccccc12)NC(=O)c1ccc(Cl)cc1 | 7.8
Cc1nc(NCc2ccccn2)c2ccccc2n1.Cl | 12.5
CN(CC1COc2ccccc2O1)C(=S)Nc1ccccc1F (stereo not drawn) | 8.66
COc1ccc(CC(=O)OCC(=O)NCCNC(=O)COC(=O)Cc2ccc(OC)cc2)cc1 | 7.38
O=C1c2cccc3c(O)ccc(c23)C(=O)N1Cc1ccccc1 | 10.5
O=C(NCC1CCCO1)c1cccs1 (stereo not drawn) | 0.613
CCOC(=O)/C(=C\Nc1ccccc1C(F)(F)F)Sc1ncc(C(F)(F)F)cc1Cl | 7.07
O=C(Nc1ccc(-c2nc3ccccc3o2)cc1)c1ccc(N2C(=O)C3C4C=CC(C4)C3C2=O)cc1 (stereo not drawn) | 4.62
COc1ccc(CNC(=O)CN(C(=O)c2csnn2)c2cccc3c2CCCC3)cc1 | -1.02
O=c1c(NCCc2ccc(Cl)cc2)c(-c2ccccc2)c1=O | 8.47
CCn1c(COc2ccc3ccccc3c2C)nnc1SCC(=O)Nc1cccc(C(=O)O)c1 | -14.6
Cc1ccsc1CNCc1cc(Cl)ccc1O.Cl | 5.98
COc1cccc(NC2=Nc3cccc4cccc2c34)c1 | 13.9
CC1CC(NS(=O)(=O)c2cccs2)CC(C)(C)C1 (stereo not drawn) | 10.6
CCOc1ccc(NC(=O)CN(C)C(=O)COc2cccc3c2OC(C)(C)C3)cc1OCC | 4.3
CCC1(CC)Cc2ccccc2C(CC(=O)N2CCOCC2)=N1.O=S(=O)(O)O | 1.06
COc1cc(/C=N/NC(=O)c2ccccc2O)ccc1OCC(=O)Nc1ccccc1 | 25.8

SMILES | hERG current change (%, negative = inhibition) at 1uM [%]
COCCn1c(-c2ccc(Br)cc2)csc1=Nc1cccnc1 | 7.48
CC(C(=O)NCC1(c2ccccc2)CCCC1)N1CCCC1.Cl (stereo not drawn) | -3.37
CC(NC(=O)NC(N)=O)(C(F)(F)F)C(F)(F)F | 9.7
C=CCNC(=O)CCCOc1ccc(C)cc1 | 1.88
CCc1cc(C(=O)c2ccc(OC)cc2)c(NC(=O)CN2CCCC2)s1 | 11.6
Cc1ccc(C(=O)c2ccccc2C(=O)OCC(=O)N2C(C)CCCC2C)cc1 (stereo not drawn) | 3.92
COC(=O)C(C)(C)ONC(=O)Nc1ccccc1Cl | 39.7
COc1ccc(N(CC(=O)N2CCN(c3ccccc3F)CC2)S(=O)(=O)c2ccc(C)cc2)cc1 | 13.8
CCOC(=O)C1CCCN(C(=O)c2sc3nc(-c4ccc(OC)cc4)cn3c2C)C1 (stereo not drawn) | -7.95
O=C(NC1CCCCC1)C(=S)NCCc1ccccc1 | 4.31
CCCCC(=O)N1CCN(c2nc3ccc(Br)cc3s2)CC1 | -9.61
COc1ccc(N=Nc2c(C)[nH][nH]c2=O)cc1 | 12.9
CCN1CCCC1CNS(=O)(=O)c1cccc(C(F)(F)F)c1.Cl (stereo not drawn) | 5.04
COc1cccc(/C=N/NC(=S)Nc2cccc(C(=O)O)c2)c1 | 17.3
CCOC(=O)C(=O)NNc1cccc(C)c1C | 10.6
CC1(C)CC2(CCCN(CC(O)(c3ccccc3)c3ccccc3)C2)CCO1.Cl (stereo not drawn) | 5.53
CCOc1ccc(NC(=S)N2CCN(c3ccc(N4CCOCC4)nn3)CC2)cc1 | -6.57
O=C(NCCN1C(=O)S/C(=C/c2cccnc2)C1=O)C1=NN(c2ccccc2)C(=O)CC1 | 4.43
CC(CNC(=O)c1ccccc1Cl)c1ccccc1 (stereo not drawn) | 16.1
Cc1cc(C(=O)c2ccc3ccccc3c2)c(C)o1 | 12.2
CCOC(=O)c1ccccc1NC(=O)c1cccs1 | 9.12
Cc1cccc(N(C)S(=O)(=O)c2ccc3c(c2)CCC(=O)N3)c1 | -2.14
Cc1cccc(C2=NN(c3ccc(Br)cc3)[C@@H](C(=O)N3CCOC3=O)[C@@H]2c2ccc(F)cc2)c1 | 20.8

SMILES | hERG current change (%, negative = inhibition) at 1uM [%]
CCN1CCN(C(=O)CN2C(=O)c3cccc4cccc2c34)CC1 | 3.87
COc1ccc(N2CCc3c(C)nc4c(OC)cc(OC)cc4c32)cc1 | -52.7
O=C(NN=C1CCCC1)c1[nH]c2ccc(Br)cc2c1-c1ccccc1 | 11.4
COc1ccc(C2c3[nH]c4ccccc4c3CCN2CCCn2cccn2)c(F)c1 (stereo not drawn) | 9.27
Cc1cccn2c(=O)c3cc(C(=O)NC4CCCC4)c(=N)n(CCCN4CCOCC4)c3nc12 | -77.5
CCO[C@@H]1OC(C(=O)NC2CC2)=C[C@H](C)[C@H]1CCCO | 9.28
CCOC(=O)CNS(=O)(=O)c1cc(-c2nn(C)c(=O)c3ccccc23)ccc1C | 1.3
CCOC(=O)c1ccccc1NC(=O)Cn1cnc2c1c(=O)n(C)c(=O)n2C | 10.8
Cc1nc(-n2nnc(CO)c2CO)nc2c1CCC2 | 11.9
CCN(CC)CCC(=O)Nc1cccc2c1C(=O)c1ccccc1C2=O.Cl | -7.36
Cc1cc(C(F)(F)F)nn1CC(=O)N(C)c1ccccc1 | 13.1
O=C1/C(=C/c2ccccn2)COc2ccccc21 | -1.54
COc1ccc(N2C(=O)C3CCCN3C2c2ccccc2F)cc1 (stereo not drawn) | 6.38
O=C(CCS(=O)(=O)c1ccccc1)Nc1nc2c(s1)COc1ccccc1-2 | 7.29
O=C(Nc1ccc2nn(-c3ccccc3)nc2c1)c1ccc2c(c1)OCO2 | -1.05
CC(C)C(=O)N(Cc1ccc2c(c1)OCO2)Cc1ccccn1.Cl | 2.58
O=C1c2cccc3cccc(c23)C(=O)N1/N=C/c1c(O)n(-c2ccccc2)c(=O)[nH]c1=O | -2.72
COc1cc(Nc2ccc(S(N)(=O)=O)cc2)c([N+](=O)[O-])nc1[N+](=O)[O-] | 16
O=[N+]([O-])c1cccc(Nc2nc(Cl)nc(Cl)n2)c1 | 5.7
CCOC(=O)C1CCCN(S(=O)(=O)c2ccc(S(N)(=O)=O)cc2)C1 (stereo not drawn) | 11.8
S=C1NC(c2ccccc2)=NCN1c1ccccc1 | -0.263
CCOc1ccccc1N1CCN(CC(=O)Nc2ncc(C)s2)CC1 | 11.6
Fc1cccc(CN2CCSCC2)c1 | 17.9

SMILES | hERG current change (%, negative = inhibition) at 1uM [%]
CCCn1c(SC(C)C(=O)O)nc2ccccc21 (stereo not drawn) | -4.27
Cc1ccc(-c2nc3ccccc3c(=O)o2)cc1 | 17.4
O=[N+]([O-])c1ccc2c(OCc3nnc(-c4ccccc4Br)o3)ncnc2c1 | -49.8
Cc1oc2cc(O)ccc2c(=O)c1N1C(=O)c2ccccc2C1=O | -0.537
O=c1c(Cc2ccc(Cl)cc2Cl)c(O)ccn1Cc1ccncc1 | 14.8
COc1ccc(C(=O)c2ccccc2)c(O)c1 | -1.73
Cc1ccc(S(=O)(=O)Nc2cccc(C(=O)NCCN3CCOCC3)c2)cc1F | 6.73
CN1CCN(C(c2ccc(C(F)(F)F)cc2)c2ccc3cccnc3c2O)CC1 (stereo not drawn) | 7.36
COc1cc(/C=N/N2CCN(C3c4ccccc4-c4ccccc43)CC2)cc(OC)c1OC | 6.99
Cc1ccc(C(=O)NCC(=O)OCCCOC(=O)CNC(=O)c2ccc(C)c(C)c2)cc1C | 4.69
Cc1ccc(C(=O)Nc2nnc(CC(=O)N/N=C/c3ccncc3)s2)cc1 | 9.31
CCOC(=O)c1ccc(NS(=O)(=O)c2ccc3[nH]c(=O)[nH]c3c2)cc1 | 3.27
CC1CCC2(CC1)NC(=O)N(CC(=O)NCCc1ccc(F)cc1)C2=O (stereo not drawn) | 5.05
O=C(NCc1ccccc1)c1cccc(NS(=O)(=O)c2cccc3cccnc23)c1 | 0.493
CCOC(=O)/C(=N\Nc1cc(Cl)ccc1Cl)N1CCOCC1 | 5.9
O=C(NCC1CCCO1)c1cccc(NC(=O)c2ccc(Br)cc2)c1 (stereo not drawn) | 4.34
COc1cc(/C=N/NC(=O)CC2(C)OCCO2)cc(Br)c1O | 6.65
CCOc1ccc(-c2cc(CCCC(=O)NCc3cccnc3)no2)cc1 | 3.17
CN(C)S(=O)(=O)c1cc(NC(=O)CN2CCN(c3ccccc3)CC2)ccc1Cl | -0.733
O=C1C=C(NCc2ccco2)CCC1 | 15.2
Cc1ccc(C)c(N2C(=O)CN=C2Nc2ccccc2Cl)c1.Cl | 8.36
